In paper PMC4336329 (PLoS ONE, 2015):
Screen size: about 310,000 compounds; about 14,000 (4.5%) showed an effect of 50% or more. The effect is printed as a negative number. Some of the results follow.

biological target: human ether-à-go-go-related gene (hERG) potassium channel (human, UniProt Q12809); assay: primary screen, population patch clamp on CHO cells stably expressing hERG
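Further: peak tail current of the secondary pulse compared with the same well before compound.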

human ether-à-go-go-related gene (hERG) potassium channel, sequence (Q12809 whole entry, looked up): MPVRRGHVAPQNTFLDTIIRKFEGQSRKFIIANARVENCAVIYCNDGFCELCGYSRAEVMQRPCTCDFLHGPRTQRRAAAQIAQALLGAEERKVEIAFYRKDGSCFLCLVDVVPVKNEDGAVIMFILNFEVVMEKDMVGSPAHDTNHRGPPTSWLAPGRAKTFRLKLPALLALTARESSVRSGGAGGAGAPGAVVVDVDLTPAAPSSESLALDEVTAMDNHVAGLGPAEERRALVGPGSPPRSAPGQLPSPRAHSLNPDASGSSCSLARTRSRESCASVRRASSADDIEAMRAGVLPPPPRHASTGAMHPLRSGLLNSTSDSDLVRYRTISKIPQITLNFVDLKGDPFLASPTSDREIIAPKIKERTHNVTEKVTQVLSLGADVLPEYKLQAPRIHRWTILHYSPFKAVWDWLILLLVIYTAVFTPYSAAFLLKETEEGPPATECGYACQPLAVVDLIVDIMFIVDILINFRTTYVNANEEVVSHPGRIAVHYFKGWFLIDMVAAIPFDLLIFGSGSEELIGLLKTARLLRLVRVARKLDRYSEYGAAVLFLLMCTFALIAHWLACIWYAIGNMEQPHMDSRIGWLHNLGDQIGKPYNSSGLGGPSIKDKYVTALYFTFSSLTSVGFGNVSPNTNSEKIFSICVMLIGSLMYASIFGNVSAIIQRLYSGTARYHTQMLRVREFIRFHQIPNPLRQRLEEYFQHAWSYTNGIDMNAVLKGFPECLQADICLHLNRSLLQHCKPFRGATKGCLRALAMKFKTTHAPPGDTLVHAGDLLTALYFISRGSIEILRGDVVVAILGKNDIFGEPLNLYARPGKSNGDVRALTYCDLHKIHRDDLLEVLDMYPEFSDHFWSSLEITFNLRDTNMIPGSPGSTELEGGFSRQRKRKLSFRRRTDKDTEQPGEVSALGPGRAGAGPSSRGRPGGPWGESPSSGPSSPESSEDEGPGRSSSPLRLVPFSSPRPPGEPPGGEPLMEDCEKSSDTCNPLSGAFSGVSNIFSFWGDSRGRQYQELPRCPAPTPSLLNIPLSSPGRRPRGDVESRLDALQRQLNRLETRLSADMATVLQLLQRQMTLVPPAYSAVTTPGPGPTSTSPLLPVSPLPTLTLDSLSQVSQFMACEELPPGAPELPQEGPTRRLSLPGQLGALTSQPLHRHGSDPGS

Structure (SMILES) | hERG current change (%, negative = inhibition) at 10uM [%]
CCCc1nc(SCC(=O)c2ccccc2)c2c(=O)n(C)c(=O)n(C)c2n1 | -23.5
O=C1C(=O)c2ccccc2C(O)=C1c1cccc([N+](=O)[O-])c1 | 13.8
CCN(C(=O)CSc1nc2c(cnn2-c2ccccc2)c(=O)[nH]1)C1CCS(=O)(=O)C1 (stereo not shown) | -22.7
CN(C(=O)c1ccccn1)c1nnc(-c2ccccn2)s1 | 11.6
CCCCNc1c(-c2ccc(OC)c(SC3CCCCC3)c2)nc2cc(C)ccn12.O=C(O)C(F)(F)F | 12.6
Cc1nc(N2CCNCC2)c2c3c(sc2n1)CCCC3 | -2.23
CC1(c2nnc(-c3ccc(F)cc3)o2)CC(c2ccccc2)=NO1 (stereo not shown) | 10.1
COc1ccc(/C=C/C(=O)O)cc1OC | 12.8
Cl.N#Cc1ccc(C(c2nnnn2Cc2ccccc2)N2CCCC2)cc1 (stereo not shown) | -14.9
Cc1cc(-c2ccccc2N)n[nH]1 | -2.9
O=C(c1ccc(Cl)cc1)N1CCN(CCOc2ccccc2)CC1 | -60.1
O=S(=O)(NCc1ccco1)c1cnc(Cl)c(Br)c1 | 2.87
COCc1[nH][nH]c(=O)c1C=Nc1ccc(C(F)(F)F)cc1 | -13.2
O=C(C1=C(O)C(=O)N(CCc2ccccc2)C1c1cccs1)c1ccco1 (stereo not shown) | 10.2
CC(C)Sc1nnc(OC(=O)N(C)C)n1-c1ccccc1 | -0.148
CCCNC(=O)/C(C#N)=C1\N=C(NC(=O)c2cccs2)c2ccccc21 | 4.48
COc1ccc(CC(=O)NCc2n[nH]c(=S)n2-c2cccc(C)c2)cc1 | 9.12
COc1ccc(CCC(=O)Nc2cc(Cl)ccc2N2CCN(C)CC2)cc1 | -50.1
COC(=O)CSc1ncnc2c1sc1nc(N3CCOCC3)c3c(c12)CCCC3 | 23.4
Cc1csc(CN(C)C(=O)c2cn(Cc3cccc4ccccc34)nn2)n1 | -8.45
CCn1c(SCC(=O)NCc2ccccc2)nc2c(c1=O)SC(C)C2 (stereo not shown) | -2.95
Cc1cc(Cl)ccc1NC(=O)CCN1C(=O)C2CCCCC2C1=O (stereo not shown) | 0.13
COc1cccc(CNC(=O)CCNC(=O)c2ccccc2OC)c1 | 2.88

Structure (SMILES) | hERG current change (%, negative = inhibition) at 10uM [%]
C=CCn1cnc2c(nnn2-c2ccc(OC)c(OC)c2)c1=O | 1.23
CN[C@@H]1C[C@@H](c2ccc(Cl)c(Cl)c2)c2ccccc21.Cl | -22.4
Cc1cc(/C=N/NC(=O)C(O)(c2ccccc2)c2ccccc2)c(C)n1-c1ccccc1 | -0.473
CN(c1ccccc1)S(=O)(=O)c1ccc(Cl)c(C(=O)OCC(N)=O)c1 | -1.85
COc1cccc(-c2csc(NNC(=O)c3cccs3)n2)c1 | -2.17
CCS(=O)(=O)n1nc(-c2ccc(Cl)cc2)nc1N | -11.4
CCCn1c(CN2CCN(C(=O)OCC)CC2)nc2c1c(=O)n(C)c(=O)n2C | 2.21
Cc1cc(NC(=O)c2ccc(F)cc2)n(-c2ccccc2)n1 | -80.2
O=S(=O)(c1cccc(Cn2nnc(-c3ccc(F)cc3)n2)c1)N1CCOCC1 | -29
COc1ccc(NC(=O)CCCNC(=O)c2ccc(Cl)cc2)cc1OC | 6.96
O=C(Nc1nccs1)c1cccc(NC(=O)C2CC2)c1 | -15.7
COc1ccc(C2SCC(=O)N2CCCN(C)C)cc1.Cl (stereo not shown) | 3.16
CN(C)S(=O)(=O)Oc1cccc(C(=O)Nc2ccccc2Cl)c1 | -47.2
COC(=O)c1sc(NC(=O)c2ccc(C)o2)nc1C | -3.35
C=CCn1c(SC)nc2sc3c(c2c1=O)CCc1ccccc1-3 | 10.3
CC(NCc1ccccc1C(F)(F)F)C(O)c1ccccc1.Cl (stereo not shown) | -7.73
S=c1nc(-c2cc(Cl)ccc2Cl)[nH][nH]1 | 16.4
COc1ccc(CC(=O)OCCc2cc3cc(OC)c(OC)cc3c(=O)o2)cc1 | -3.83
CC(=O)Nc1sc2c(c1C(c1ccccc1Cl)N1CCN(CCO)CC1)CCCC2 (stereo not shown) | -25.2
CCOC(=O)c1c(NC(=O)C2COc3ccccc3O2)sc(C)c1C (stereo not shown) | -1.9
COC(=O)/C(=C/c1ccc(F)cc1)NC(C)=O | -0.211
Cc1oc(-c2cccs2)nc1CS(=O)CC(=O)NCCCN1CC(C)CC(C)C1 (stereo not shown) | -6.76
CC(=O)N(C)c1ccc(N=Nc2c(C)[nH]n(C(N)=S)c2=O)cc1 | 5.56

Structure (SMILES) | hERG current change (%, negative = inhibition) at 10uM [%]
O=C(O)COc1ccccc1/C=N/NC(=O)c1ccc2c(c1)OCCO2 | -2.93
COc1cc2[nH]ccc(=O)c2cc1OC | 3.62
O=C(NC(=S)Nc1ccccc1Br)C1CCCC1 | 17
CCOC(=O)c1cc(/C(C)=N/OC(=O)c2ccc(Cl)cc2)on1 | 12
Cc1ccc(-c2nc(N)n(C(=O)c3ccco3)n2)cc1 | 24.9
O=C(CN1CCN(C(=O)c2ccco2)CC1)Nc1ccc(F)cc1F | -49.6
CCCc1ccccc1OCCNC(C)=O | 12.4
COc1ccc(CCN(Cc2cc3cc(C)ccc3[nH]c2=O)C(C)=O)cc1OC | -6.87
Cc1ccc(OCC2Cn3c(nc4c3c(=O)[nH]c(=O)n4C)O2)cc1C (stereo not shown) | 3.15
O=C(CN1C(=O)NC2(CCOc3ccccc32)C1=O)c1ccc(F)c(F)c1 (stereo not shown) | -47
CCOC(=O)C(O)(c1ccc(N=Cc2ccccc2O)c(C)c1)C(F)(F)F (stereo not shown) | 11.1
O=C(CSc1nnc(SCc2ccccc2)s1)N/N=C/c1ccc(Cl)cc1Cl | -5.88
Cc1ccc(N(CC(=O)NCc2ccco2)C(=O)CCC(=O)Nc2ccccn2)cc1C | 4.43
O=C(c1ccccc1)C1CCCN(Cc2nc(-c3cnccn3)no2)C1 (stereo not shown) | 10.2
O=C(Oc1ccc(C(=S)N2CCOCC2)cc1)c1ccccc1F | -5.36
CC(=O)N(Cc1cc2ccccc2[nH]c1=O)c1ccc(C)cc1 | -9.66
Cc1ccc(O)c(NC(=O)c2noc3c2CCCCC3)c1 | 7.08
Cc1cccc(NC(=O)N2CC3CC(C2)c2cccc(=O)n2C3)c1 (stereo not shown) | 16.3
COc1ccc(Cl)cc1NC(=O)C(C)N1CCN(C/C=C/c2ccccc2)CC1.O=C(O)C(=O)O (stereo not shown) | -63.4
Cc1cccc(C(=O)O/N=C2\CCS(=O)(=O)c3sccc32)c1 | 1.16
CCc1ccc(NC(=O)c2onc(C)c2Cl)cc1 | 0.736
Cc1cc(C)c(OCC(=O)Nc2nnc(-c3ccco3)o2)c(C)c1 | 1.74
COc1ccc(-c2cc(-c3nnc(COC(=O)c4ccc(O)cc4)o3)c3ccccc3n2)cc1OC | 16.9

Structure (SMILES) | hERG current change (%, negative = inhibition) at 10uM [%]
CCOC(=O)N1CCN(CCC(=O)Nc2ccc(OC(F)(F)F)cc2)CC1 | -63.3
O=C(Nc1nc2c(ccc3ccccc32)s1)c1cc([N+](=O)[O-])ccc1N1CCOCC1 | 9.84
O=C(O)Cn1cc(C(=O)C2CC2)c2ccccc21 | 11.3
c1ccc2c(c1)C(=Nn1cnnc1)c1ccccc1-2 | 11.5
O=C(O)CCCNC1=NCCC1 | 20.6
COC(=O)c1cc(C)sc1NC(=O)CN1CCN(C(=O)C2CCCO2)CC1 (stereo not shown) | -34.7
COc1ccc(S(=O)(=O)CCC(=O)NCCc2ccc(Cl)cc2)cc1 | -16.4
COc1ccc(N2CCN(Cc3oc(CO)cc(=O)c3O)CC2)cc1 | -7.53
O=[N+]([O-])c1cccc(-n2nnnc2CNCc2ccccc2)c1 | -16.7
CC1CC(C)CN(C(=O)CSc2ncnc3sccc23)C1 (stereo not shown) | 16.7
COC(=O)[C@H]1C[C@@H]1[C@H](NS(=O)(=O)c1ccccc1)c1ccccc1 | 6.53
CCOc1ncccc1C(=O)OCC(=O)NCCc1ccc(S(N)(=O)=O)cc1 | -18.3
CC1CCCC(C)N1S(=O)(=O)c1ccc(NC(=O)CNC2CCCC2)cc1 (stereo not shown) | -20.1
COc1ccccc1NS(=O)(=O)c1cccc(NC(=O)c2sc3ccccc3c2Cl)c1 | 6.42
CCc1ccc(OCc2ccc(C(=O)O)o2)cc1 | 23.2
COc1cccc(NC(=O)C2CCCN(S(=O)(=O)c3cccc4nonc34)C2)c1 (stereo not shown) | 15.9
COC(=O)c1ccc(CNC(=O)C(NC(=O)c2ccco2)C(C)C)cc1 (stereo not shown) | -1.29
COc1ccccc1CNC(=O)CCCNC(=O)c1ccc(Cl)cc1 | 5.99
COc1ccc(NS(=O)(=O)c2cn(C)cn2)c(OC)c1 | 19.5
C/C(=N\Nc1nc(Nc2ccccc2)nc(N2CCOCC2)n1)c1cccs1 | -8.97
CCOc1ccc(-c2cccc(NC(=O)c3cccs3)c2)nn1 | -33.8
CCN(Cc1ccccc1)C(=O)C1CCN(Cc2sccc2C)CC1.O=C(O)C(=O)O | -44.3
